From ChEMBL document CHEMBL4888484, “Replenishing the malaria drug discovery pipeline: Screening and hit evaluation of the MMV Hit Generation Library 1 (HGL1) against asexual blood stage Plasmodium falciparum ,using a nano luciferase reporter read-out” (2022)
In all, about 150,000 compounds went through this assay and about 540 (0.36%) showed an effect of 50% or more. The list shows a part of the results.

tested on: Plasmodium falciparum; test: Primary screen in NF54 nanoGlo assay, in single point, at 2uM, 72h; a lower Z score goes with more inhibition; assay type: functional, Erythrocyte; conditions: timepoint 72 hour

SMILES | % Inhibition | Z score
CCN1C[C@H](CN(C)C(=O)c2occc2C)Oc2ccccc21 | 5% | -0.67
Cc1cc(-c2cc(C(=O)N[C@@H]3CCCC[C@H]3O)c3c(C)noc3n2)c(C)o1 | -7% | 0.94
Nc1nc2[nH]c3c(c(=O)n2n1)CCCC3 | 5% | -0.55
CCOC(=O)c1cn(CC2CCCCC2)c2nc(C)ccc2c1=O | 23% | -2.66
CCOC(=O)c1cn(CCNC(=O)c2cc(Cl)cn2C)cn1 | 33% | -3.71
CN1CCCN(C(=O)Cc2csc(-c3ccccc3)n2)c2nc3ccccc3nc21 | 4% | -0.59
Cc1nc2ccccc2n1CCNCc1cccc2ccccc12 | -12% | 1
CCn1cc(OCCOc2cccc(OC)c2)cn1 | -13% | 2.31
C[C@@H]1[C@H](N(C)CCO)CCN1Cc1cnc(C(C)(C)C)nc1 | -3% | 0.37
Cc1noc2ncc(C(=O)N3CCC[C@H](S(N)(=O)=O)C3)cc12 | 31% | -3.48
CC(C)Cc1ncc(CN2CC(O)(c3ccccc3)C2)s1 | -1% | 0.18
COc1ccc2c(c1)CCc1c(C(=O)Nc3ccc(C)cc3)n[nH]c1-2 | -4% | 0.59
C[C@H]1CCCCN1c1ccnc(C2CC2)n1 | -15% | 1.88
O=C(c1ccc(F)cc1F)N1CC[C@H]2CN(Cc3ccccc3)C[C@@]2(CO)C1 | -11% | 1.77
Cc1cc(S(=O)(=O)NC2CCN(C)CC2)ccc1N1CCCC1=O | -7% | 1.2
CCCN1CCN(C(=O)c2cc(NC(=O)C3CCC3)cc3nc(C)ccc23)CC1 | -14% | 1.98
COCCn1ccc2c(OCC(=O)N3Cc4cc(OC)c(OC)cc4C[C@H]3C(N)=O)cccc21 | 0% | -0.03
CC(=O)Nc1nnc(CCS(=O)(=O)c2ccccc2)o1 | -7% | 1.32
CN(Cc1cc(-c2cccs2)n[nH]1)Cc1cc(CN2CCCC2)cs1 | -5% | 0.6
O=C(c1cccnc1)N1C[C@@H]2OCC(=O)N(Cc3ccccn3)[C@@H]2C1 | 11% | -1.23
CN(C)c1ccc(NC(=O)C2CCC2)cc1CN(CC1CC1)C(=O)C(C)(C)C | -2% | 0.25

SMILES | % Inhibition | Z score
O=C(CN1CCN(CC(F)(F)F)c2ccccc21)Nc1ccccc1C(F)(F)F | -4% | 0.52
Cc1ccc(NC(=O)N2CC(n3nccn3)C2)cc1C | 5% | -0.56
C1CC[C@@H](c2nc(CCOCC3CCOCC3)no2)NC1 | -1% | 0.17
O=C(NCCc1ccccc1)c1cccc(Nc2c(-c3ccc(Cl)cc3)nc3cnccn23)c1 | 8% | -1.54
Cc1nc(-c2ccc3c(c2)CCN3C(=O)C2CCN(C(=O)c3ccc(F)cc3F)CC2)cs1 | -6% | 0.94
COC1CCN(C[C@H]2CCCCCN2C(=O)Nc2cccc(C)c2)CC1 | -6% | 0.92
O=C1C[C@@H](C(=O)Nc2ccncc2)Oc2ccc(F)cc21 | 31% | -3.46
Cc1noc(C)c1S(=O)(=O)NCc1cn(-c2cccnc2)nn1 | 0% | 0
Nc1ncc(Cl)cc1S(=O)(=O)N1CCCNCC1 | -9% | 1.71
CC1CN(c2nc(-c3ccccc3)nnc2-c2ccccc2)CC(C)O1 (stereo not drawn) | 32% | -0.87
N#CCN(C(=O)c1cnn(Cc2ccccc2)c1)C1CCCC1 | -14% | 1.27
CCc1ccc(-c2c(-c3ccccc3)ncn2Cc2nnc3n2CCC3)nc1 | 17% | -2.15
Cc1cc([C@@H](C)C(=O)N2CCN(CC(C)(C)O)CC2)c(C)o1 | -3% | 0.29
O=C(Nc1ccc(F)cc1NC(=O)c1cc2c(s1)CCC2)c1ccccn1 | -5% | 0.6
COc1ccc(Cl)cc1NC(=O)Cn1cc2c(n1)CCCCC2 | -8% | 1.46
CCOc1ccc(CNC(=O)C2CCN(c3nccc4c(C)nn(CC)c34)CC2)cc1OCC | 7% | -1.22
COC(=O)C1CCN(Cc2ccc3c(c2)CN(C(=O)c2ccc(CC(C)C)cc2)CCO3)CC1 | 2% | -0.47
C[C@@H](c1ccc(Cl)cc1Cl)N(C)C(=O)CC1CCOCC1 | -7% | 1.05
O=C(CCC1CCCOC1)NC(c1ccc(F)cc1)c1ccccn1 (stereo not drawn) | -13% | 1.99
CC(C)(C(=O)Nc1cc(C2CCCC2)[nH]n1)N1CCOCC1 | -1% | 0.14
COc1ccc(CS(=O)(=O)Cc2nc(C)cs2)cc1Cl | -6% | 0.55

SMILES | % Inhibition | Z score
NC(=O)c1ccc(-n2cnnc2)cc1N1CCCC1 | -5% | 0.51
COc1ccc(F)cc1S(=O)(=O)N1CCn2c(nn(C)c2=O)C1 | -13% | 2.3
Cc1ccc(S(=O)(=O)N2CC[C@](c3nnnn3C3CCCC3)(N(C)C)C2)cc1F | -16% | 1.81
CCn1cc(Cl)c(NC(=O)[C@H]2CNCC23CCCCC3)n1 | -1% | 0.26
CO[C@@H](C)c1cccc(NC(=O)C(=O)NCc2nc(C)cs2)c1 | -5% | 0.6
Cn1cc(NC(=O)[C@@H]2COCC(=O)N2Cc2ccccc2)cn1 | 3% | -0.56
Cc1ccc(OC[C@@H]2CCCN3CCCC[C@H]23)c(C(=O)O)c1 | 1% | -0.14
CCn1cc(-c2nc(CC(=O)Nc3ccc(F)c(C)c3)cs2)c2cccnc21 | -18% | 3.14
COC(=O)c1nc(NC(=O)c2sc(C)nc2C)sc1-c1ccccc1OC | -2% | 0.3
Cc1cc(C)c(C)c(S(=O)(=O)N2CCn3c(nnc3[C@H]3CCN(C(C)C)C3)C2)c1C | 37% | -4.95
COc1ncc(CN2C[C@H](CO)OC(C)(C)C2)cc1Cl | 5% | -0.72
CCc1nn(C)cc1C=Cc1nc(C(=O)O)c(C)s1 | -1% | 0.21
CCN1CCN(c2ncc(C(=O)Nc3ccccc3)c(N)n2)CC1 | -18% | 2.08
O=C(C1CCC1)N1CCC[C@H](C(F)(F)F)C1 | -4% | 0.5
COc1ccc(F)c(CN2CCCC3(CCOCC3)C2)c1 | 15% | -1.91
O=C(Nc1cnccc1CO)c1csc(C2CCCCC2)c1 | 0% | 0.04
Cc1ccc(OCC(=O)N[C@H](c2ccccc2)C2CC2)c(C)c1 | -12% | 1.05
CN1CCO[C@H](C(=O)Nc2cccc(CCCO)c2)C1 | -10% | 1.29
CN(Cc1ccccc1)C(=O)CC[C@@H]1C(=O)Nc2ccccc21 | -16% | 1.95
Cc1nc([C@@H]2CCCCCN2C(=O)C2=CCCCCC2)no1 | -10% | 1.49
Cc1cccc(-c2nn(Cn3nc(C)c(Cl)c3C)c(-c3cccc(C)c3)c2Cl)c1 | 26% | -2.9

SMILES | % Inhibition | Z score
CC1(C)CN(C(=O)c2ncoc2C2CC2)CC[C@]1(C)O | -9% | 0.75
Cc1cc(C)[n+](C(c2ccccc2)c2ccccc2)o1 | -1% | 0.11
N#CCN1CCN(C(=O)N2CCN(Cc3ccccc3)CC2)CC1 | -1% | 0.18
CN(C)C(=O)CC1CCN(C(=O)c2nccnc2O)CC1 | -4% | 0.56
COc1ccc(-c2nc3cc(C)ccc3cc2CN(C)[C@H]2CCN(C)C2)cc1 | -5% | 0.85
O=C(Cc1ccccc1O)N[C@H]1COc2cccc(Cl)c21 | -10% | 1.9
Cc1ccc(CCN(C[C@H]2CCCO2)S(C)(=O)=O)cc1 | -6% | 0.67
O=C(CC1CCCCC1)Nc1ccc(-c2nc3ccccc3s2)cc1Cl | 10% | -0.88
COc1cc(-c2cc(CN(C[C@H]3CCCO3)C(=O)C(C)(C)C)no2)cc(OC)c1OC | -2% | 0.32
CNC[C@@H]1C[C@H](F)CN1C(=O)CC(C)(C)c1ccc(F)cc1 | -14% | 1.73
CCCn1nccc1C(=O)N1CCN(CC=C(C)C)[C@@H]2CS(=O)(=O)C[C@@H]21 | -17% | 1.8
CNC(=O)COc1ccc(-c2cccc(C(=O)N3CCC[C@@H]3C)c2)cc1 | 0% | -0.02
CC1=C[C@@H](CN2CCC(O)CC2)[C@H](C(C)C)C[C@H]1Cc1nnc(-c2ccncc2)o1 | -2% | 0.33
Cn1c2c(c3ccccc31)CN(C(=O)NC(C)(C)C)CC2 | -7% | 1.27
Cn1cc(Cl)c(C(=O)NC(Cc2ccccc2)[C@H]2C[C@H](O)C2)n1 (stereo partly drawn) | -16% | 1.41
Brc1cnc(NCn2nnc3ccccc32)c(Br)c1 | -8% | 1.64
CCC(C)(C)CN[C@H]1CC2(CN(C(=O)OC(C)(C)C)C2)n2ncnc21 | 4% | -0.49
CN(C)S(=O)(=O)c1ccc(C(=O)N2CCCC[C@H]2c2cnn(C)c2)cc1 | -15% | 1.91
CNc1ncccc1C(=O)NC(c1cccs1)[C@H]1C[C@@H](O)C1 (stereo partly drawn) | 2% | -0.3
COc1cccc(-c2cc(C(=O)N3CCc4ccccc4C3)nc3cc(-c4ccccc4)nn23)c1 | 3% | -0.62
COc1ccc(CN2C(=O)N[C@@H](CCC(=O)Nc3nc(C)cs3)C2=O)cc1 | 2% | -0.27
